Measurements reported in patent publication US7579371B2, “Methods of using [3.2.0] heterocyclic compounds and analogs thereof” (Nereus Pharmaceuticals, Inc., priority 2004, dated 2009).

Tested on: RAW264.7 cells
Conditions: mouse, 12 nM, no LeTx

SMILES: C[C@@]12OC(=O)[C@]1([C@@H](O)[C@@H]1C=CCCC1)NC(=O)[C@@H]2CCCl [Formula II-16, Salinosporamide A]
- viability, compound alone: 96%
